{"source": "ChEMBL document CHEMBL5606458", "about": "“ASAP - ZIKV NS2B-NS3 protease fluorescence single point” (2024)", "target": "Nonstructural protein 3 (Zika virus) (UniProt A0A024AXB9)", "sequence (A0A024AXB9 as listed by the source)": "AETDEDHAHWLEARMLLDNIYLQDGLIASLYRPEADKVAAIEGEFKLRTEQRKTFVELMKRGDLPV", "key": {"[1]": {"conditions": "PRVABC59, Concentration 15.0 uM, Number of replicates 1.0"}, "[2]": {"conditions": "PRVABC59, Concentration 50.0 uM, Number of replicates 1.0"}}, "note": "Hit rate of the full screen: of about 2,700 compounds, about 160 (5.9%) showed an effect of 50% or more. The list shows a part of the results."}
{"compound": "COc1cc(CS(=O)(=O)CCC(C)(C)OC)nc(N2CCNCC2)n1", "values": [{"measurement": "inhibition", "setting": "PRVABC59, Concentration 49.5 uM, Number of replicates 2.0, Standard deviation 3.2478539322195656 %", "value": 3.44, "unit": "%"}, {"measurement": "inhibition", "setting": "PRVABC59, Concentration 99.01 uM, Number of replicates 2.0, Standard deviation 0.002563371326432575 %", "value": 3.67, "unit": "%"}, {"measurement": "inhibition", "setting": "PRVABC59, Concentration 198.0 uM, Number of replicates 2.0, Standard deviation 1.361176305381774 %", "value": 3.07, "unit": "%"}]}
{"compound": "O=Cc1ccc(N2CCC(C(=O)NCc3cc(C(F)(F)F)ccc3C(F)(F)F)CC2)cc1", "values": [{"measurement": "inhibition", "setting": "PRVABC59, Concentration 10.0 uM, Number of replicates 1.0", "value": -8.15, "unit": "%"}]}
{"compound": "CCOc1ccc(N2CCN(C(=O)c3cc(Cl)ccc3NS(=O)(=O)c3ccc(Oc4ccccc4Cl)cc3)CC2)cc1", "values": [{"measurement": "inhibition", "setting": "[1]", "value": 2.48, "unit": "%"}]}
{"compound": "O=C(c1cc(Cl)ccc1NS(=O)(=O)c1ccc(Oc2ccccc2Cl)cc1)N1CCN(c2cnccn2)CC1", "values": [{"measurement": "inhibition", "setting": "[1]", "value": -5.97, "unit": "%"}]}
{"compound": "O=C(Nc1ncc(Br)c(C(F)(F)F)n1)c1cc(Cl)ccc1NS(=O)(=O)c1ccc(Oc2ccccc2Cl)cc1", "values": [{"measurement": "inhibition", "setting": "[1]", "value": 24.7, "unit": "%"}]}
{"compound": "Cn1cc2ccc(C(=O)N3CC[C@H](c4c[nH]c5ccccc45)C3)cc2n1", "values": [{"measurement": "inhibition", "setting": "PRVABC59, Concentration 49.5 uM, Number of replicates 2.0, Standard deviation 1.3627602471690863 %", "value": 0.678, "unit": "%"}, {"measurement": "inhibition", "setting": "PRVABC59, Concentration 99.01 uM, Number of replicates 2.0, Standard deviation 2.2047700920868487 %", "value": 3.89, "unit": "%"}, {"measurement": "inhibition", "setting": "PRVABC59, Concentration 198.0 uM, Number of replicates 2.0, Standard deviation 2.209951457055384 %", "value": 10.5, "unit": "%"}]}
{"compound": "NCc1cn([C@H]2CCCN(C(=O)c3cccc4cn[nH]c34)C2)nn1", "values": [{"measurement": "inhibition", "setting": "PRVABC59, Concentration 49.5 uM, Number of replicates 2.0, Standard deviation 2.125573466336574 %", "value": -0.091, "unit": "%"}, {"measurement": "inhibition", "setting": "PRVABC59, Concentration 99.01 uM, Number of replicates 2.0, Standard deviation 0.8304286285168175 %", "value": 3.6, "unit": "%"}, {"measurement": "inhibition", "setting": "PRVABC59, Concentration 198.0 uM, Number of replicates 2.0, Standard deviation 0.5697829078439883 %", "value": 9.87, "unit": "%"}]}
{"compound": "O=C(Nc1nc(CO)cs1)[C@]1(c2ccc(F)cc2)CCCNC1", "values": [{"measurement": "inhibition", "setting": "PRVABC59, Concentration 49.5 uM, Number of replicates 2.0, Standard deviation 4.196319614731872 %", "value": 0.769, "unit": "%"}, {"measurement": "inhibition", "setting": "PRVABC59, Concentration 99.01 uM, Number of replicates 2.0, Standard deviation 3.2888686531591844 %", "value": 2.69, "unit": "%"}, {"measurement": "inhibition", "setting": "PRVABC59, Concentration 198.0 uM, Number of replicates 2.0, Standard deviation 2.8761580092162924 %", "value": 3.38, "unit": "%"}]}
{"compound": "CCc1cccc(S(=O)(=O)Nc2ccc(Cl)cc2C(=O)NC)c1", "values": [{"measurement": "inhibition", "setting": "PRVABC59, Concentration 49.5 uM, Number of replicates 2.0, Standard deviation 0.7566890081243395 %", "value": -8.25, "unit": "%"}]}
{"compound": "O=Cc1ccc(N2CCC(C(=O)N3CCN(CCOCCO)CC3)CC2)cc1", "values": [{"measurement": "inhibition", "setting": "[2]", "value": 21.2, "unit": "%"}]}
{"compound": "N#C[C@@H](NC(=O)c1cc(Cl)ccc1NS(=O)(=O)c1ccc(Oc2ccccc2Cl)cc1)c1ccc(F)cc1", "values": [{"measurement": "inhibition", "setting": "[1]", "value": 28.7, "unit": "%"}]}
{"compound": "O=C(c1cc(Cl)ccc1NS(=O)(=O)c1ccc(Oc2ccccc2Cl)cc1)N1CCC(Oc2ccccc2C(F)(F)F)CC1", "values": [{"measurement": "inhibition", "setting": "[1]", "value": 12, "unit": "%"}]}
{"compound": "COc1cc2c(cc1NC(=O)C1CCN(c3ccc(C=O)cc3)CC1)oc1ccccc12", "values": [{"measurement": "inhibition", "setting": "[2]", "value": 22.2, "unit": "%"}]}
{"compound": "Cc1cc(CO)c2cccc(NC(=O)c3ccc(O)cc3)c2n1", "values": [{"measurement": "inhibition", "setting": "PRVABC59, Concentration 49.95 uM, Number of replicates 2.0, Standard deviation 1.6158427369500596 %", "value": 6.25, "unit": "%"}, {"measurement": "inhibition", "setting": "PRVABC59, Concentration 99.9 uM, Number of replicates 2.0, Standard deviation 2.664634356189213 %", "value": 18.4, "unit": "%"}]}
{"compound": "NC(=O)C1(NC(=O)[C@]2(c3ccc(F)cc3)CCCNC2)CCOCC1", "values": [{"measurement": "inhibition", "setting": "PRVABC59, Concentration 49.5 uM, Number of replicates 2.0, Standard deviation 2.6620442637608246 %", "value": 0.389, "unit": "%"}, {"measurement": "inhibition", "setting": "PRVABC59, Concentration 99.01 uM, Number of replicates 2.0, Standard deviation 3.20139933861607 %", "value": -3.33, "unit": "%"}, {"measurement": "inhibition", "setting": "PRVABC59, Concentration 198.0 uM, Number of replicates 2.0, Standard deviation 2.412796905386676 %", "value": -3.16, "unit": "%"}]}
{"compound": "Cn1cc(NC(=O)c2ccccc2C(F)(F)F)c(-c2ccc(F)nc2)n1", "values": [{"measurement": "inhibition", "setting": "PRVABC59, Concentration 49.5 uM, Number of replicates 2.0, Standard deviation 3.7021868860702094 %", "value": -2.94, "unit": "%"}, {"measurement": "inhibition", "setting": "PRVABC59, Concentration 99.01 uM, Number of replicates 2.0, Standard deviation 2.942135191637428 %", "value": -1.07, "unit": "%"}, {"measurement": "inhibition", "setting": "PRVABC59, Concentration 198.0 uM, Number of replicates 2.0, Standard deviation 0.6047722099533683 %", "value": -1.47, "unit": "%"}]}
{"compound": "C[C@H]1CN(Cc2ccccc2)CCN1C(=O)C1CCN(c2ccc(C=O)cc2)CC1", "values": [{"measurement": "inhibition", "setting": "[2]", "value": 27.6, "unit": "%"}]}
{"compound": "COc1nccc(-c2nn(C)cc2NC(=O)c2ccccc2C(F)(F)F)c1F", "values": [{"measurement": "inhibition", "setting": "PRVABC59, Concentration 49.5 uM, Number of replicates 2.0, Standard deviation 0.9155406487492931 %", "value": -2.15, "unit": "%"}, {"measurement": "inhibition", "setting": "PRVABC59, Concentration 99.01 uM, Number of replicates 2.0, Standard deviation 1.9246139630355987 %", "value": 0.421, "unit": "%"}, {"measurement": "inhibition", "setting": "PRVABC59, Concentration 198.0 uM, Number of replicates 2.0, Standard deviation 3.811455288233007 %", "value": 2.07, "unit": "%"}]}
